Measurements: the RNAGym collection of RNA variant scans (doi:10.1101/gad.245936.114)
This sample is rich in variants without activity.

B1: tRNA (parent)
chain: CUCUCGGUAGCCAAGUUGGUUUAAGGCGCAAGACUUUAAUUUAUCACUACGAAAUCUUGAGAUCGGGCGUUCGACUCGCCCCCGGGAGAUUUUUUCCUCGAGCAA

Variants of: B1
Assay: nonsense suppression (GFP-seq) (ratio to wild type); higher = more function; SUP4oc tRNA, yeast GFP reporter sort-seq
How it was run: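 Yeast carrying genome-integrated SUP4oc tRNA variants from a library with ~3% random mutations were grown in raffinose/galactose medium with 80 mg/L adenine. Each strain also carried a galactose-driven GFP ochre reporter and RFP. Cells were sorted into GFP/RFP bins, and each bin was Illumina-sequenced (phred ≥30). Nonsense suppression (GFPSEQ) is the bin median GFP/RFP, weighted by each variant's estimated cell share per bin, relative to wild-type SUP4oc; variants needed ≥100 reads and ≥30 cells.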

| Variant | nonsense suppression |
| --- | --- |
| G7C G10U A62U | ≤ 0.026 |
| G7U G61C C77A G78U | ≤ 0.026 |
| U8A C29A A30U U55A G59A | ≤ 0.026 |
| G7C G18A G65C G86A | ≤ 0.026 |
| G7U G65C G66A G78A | ≤ 0.026 |
| G7U G26C A60C | ≤ 0.026 |
| G7U A33G U35G C56G G69U C79A | ≤ 0.026 |
| G7U C12U G28C C75U G86U | ≤ 0.026 |
| G7C U17A U55G U63C G88A | ≤ 0.026 |
| U8A G32A U71C | ≤ 0.026 |
| G7C C77G | ≤ 0.026 |
| U8A G67U C77G G78U | ≤ 0.026 |
| U8C A60U | ≤ 0.026 |
| G7U C68A | ≤ 0.026 |
| U8A U16G C34A | ≤ 0.026 |
| U8C A54U | ≤ 0.026 |
| G7C A14U U35G C56G A60G | ≤ 0.026 |
| G7C G10U C27A C82G C83U | ≤ 0.026 |
| G7C G18C | ≤ 0.026 |
| G7C U76A | ≤ 0.026 |
| U8A A60C | ≤ 0.026 |
| G7C A9U G59C G86C | ≤ 0.026 |
| U8A U21C C34G | ≤ 0.026 |
| G7U A24G G26U | ≤ 0.026 |

| Variant | nonsense suppression |
| --- | --- |
| G7C A62G U71A | ≤ 0.026 |
| G7U G61C | ≤ 0.026 |
| G7U G26U C80A | ≤ 0.026 |
| G7C C12G G26U A89C | ≤ 0.026 |
| U8A A14U | ≤ 0.026 |
| U8A A24U | ≤ 0.026 |
| U8A A24C | ≤ 0.026 |
| U8C C27A C29G | ≤ 0.026 |
| G7U U17G C27U A31G U57G | ≤ 0.026 |
| U8A C29G U35A | ≤ 0.026 |
| G7U A62U | ≤ 0.026 |
| G7U A62C | ≤ 0.026 |
| U8C G15A U21A G25A | ≤ 0.026 |
| G7U C12A G19U U35G G69C G84A | ≤ 0.026 |
| U8A A31U U71G | ≤ 0.026 |
| U8A C11U A33C | ≤ 0.026 |
| G7C U20G C68A | ≤ 0.026 |
| G7U U20A | ≤ 0.026 |
| U8C A23U | ≤ 0.026 |
| U8A C34G | ≤ 0.026 |
| U8A A62G C68A U71C G86A | ≤ 0.026 |
| U8A C72A | ≤ 0.026 |
| U8A U17G A30G G59U U71A U76C | ≤ 0.026 |
| U8C A62C C75A | ≤ 0.026 |

| Variant | nonsense suppression |
| --- | --- |
| U8A G67A C77U | ≤ 0.026 |
| G7U G19C U57G A62U | ≤ 0.026 |
| U8A C56G C83G | ≤ 0.026 |
| G7C C68A U70A C72G C80G | ≤ 0.026 |
| U8C A9U A14G G85U | ≤ 0.026 |
| U8A G65A | ≤ 0.026 |
| U8A G65C | ≤ 0.026 |
| G7C G61U | ≤ 0.026 |
| U8A A13C G67A | ≤ 0.026 |
| G7U C27A A33C | ≤ 0.026 |
| G7U C34U A54C C56U | ≤ 0.026 |
| U8A U71A G86U | ≤ 0.026 |
| G7C G59C G86C | ≤ 0.026 |
| U8C C12A C68A C72U | ≤ 0.026 |
| G7C G15C G67A | ≤ 0.026 |
| G7U G66A | ≤ 0.026 |
| G7U A9U A31U | ≤ 0.026 |
| G7U U17A C29G U58G | ≤ 0.026 |
| U8C A14U A60C | ≤ 0.026 |
| G7U U22G A24U C68A | ≤ 0.026 |
| U8A G88C | ≤ 0.026 |
| U8A C12A A54U | ≤ 0.026 |
| G7C A24G | ≤ 0.026 |
| U8C A60U C82G G88U | ≤ 0.026 |

| Variant | nonsense suppression |
| --- | --- |
| G7C A62U | ≤ 0.026 |
| G7U U21G A60C G84C | ≤ 0.026 |
| G7U C29U C68U | ≤ 0.026 |
| U8C A87U | ≤ 0.026 |
| U8A U20A A23G | ≤ 0.026 |
| U8C C64G | ≤ 0.026 |
| U8C C64U | ≤ 0.026 |
| U8C C64A | ≤ 0.026 |
| U8A U16G G61U | ≤ 0.026 |
| G7U A31C | ≤ 0.026 |
| G7U A60G C81A A89G | ≤ 0.026 |
| G7C U58G U63C | ≤ 0.026 |
| U8A A30U | 0.0393 |
| G7U C12U C64G C72U | ≤ 0.026 |
| U8A U58C A74G | ≤ 0.026 |
| G7C C12G G88A | ≤ 0.026 |
| U8C A13G G85U | ≤ 0.026 |
| U8A C12U C56G C72A G78U C79G | ≤ 0.026 |
| U8A G10A G65A G85U | ≤ 0.026 |
| G7U G85C | ≤ 0.026 |
| U8A U22G G67C G78U | ≤ 0.026 |
| G7C G65A | ≤ 0.026 |
| G7C G19U U20A U58G A89G | ≤ 0.026 |
| G7C G19A | ≤ 0.026 |

| Variant | nonsense suppression |
| --- | --- |
| G7C G73C C82G | ≤ 0.026 |
| U8C A24G G61C U76G C80U | ≤ 0.026 |
| U8A C27U | ≤ 0.026 |
| G7C U16C C27G | ≤ 0.026 |
| G7C U17A G32U C80G | ≤ 0.026 |
| U8A C77U A89G | ≤ 0.026 |
| U8A C29U U55A | ≤ 0.026 |
| U8A C11G C81U | ≤ 0.026 |
| G7U G32A U58G | ≤ 0.026 |
| G7C A9C | ≤ 0.026 |
| G7C A9U | 0.0428 |
| U8A G26C C81U | ≤ 0.026 |
| U8A U17A U71C | ≤ 0.026 |
| G7U A14G C75A | ≤ 0.026 |
| G7C G18C U20G G28U U71A | ≤ 0.026 |
| G7U C79A G85U G86U G88U | ≤ 0.026 |
| G7U A9U C80G | ≤ 0.026 |
| G7U A30U G59U | ≤ 0.026 |
| U8C A33U U57G G59U G66U U76A G86C | ≤ 0.026 |
| U8A U22G G65U G66A | ≤ 0.026 |
| G7U C27U C77A C83U G88U | ≤ 0.026 |
| G7C A14C G61U A74U A87G | ≤ 0.026 |
| U8C G10A | ≤ 0.026 |
| G7C G15U G61C | ≤ 0.026 |

| Variant | nonsense suppression |
| --- | --- |
| U8A A62C G65A | ≤ 0.026 |
| G7U U71G C82A G85C | ≤ 0.026 |
| U8A C83A | ≤ 0.026 |
| U8A C11U U55A C68G | ≤ 0.026 |
| G7U U8C | ≤ 0.026 |
| U8A U70A | ≤ 0.026 |
| G7U G10U C80U G86C | ≤ 0.026 |
| G7C G26A C80A | ≤ 0.026 |
| U8C G10U A14C U17G A74G | ≤ 0.026 |
| U8A C34A G86A | ≤ 0.026 |
| G7C C12G G59A | ≤ 0.026 |
| U8C C11G | ≤ 0.026 |
| U8A A23G C80G G84C | ≤ 0.026 |
| G7C G67U C80U | ≤ 0.026 |
| G7C A24U G28C U76G C80G | ≤ 0.026 |
| U8A G61A | ≤ 0.026 |
| G7C G15U C27A A60C C80G A89G | ≤ 0.026 |
| G7C U20G G59U | ≤ 0.026 |
| G7U U35G | ≤ 0.026 |
| G7U A31C G88A | ≤ 0.026 |
| U8C G10C G18U C27A G67A | ≤ 0.026 |
| U8C C34G | ≤ 0.026 |
| G7U G32A A33C C83A A89G | ≤ 0.026 |
| U8A G59A U71A | ≤ 0.026 |

| Variant | nonsense suppression |
| --- | --- |
| G7C A14U A23C C83A | ≤ 0.026 |
| G7C A9G C11A G61C | ≤ 0.026 |
| G7U C12U G15U U21A | ≤ 0.026 |
| G7U U17A U20C A23G A31G A87U | ≤ 0.026 |
| U8C G18A | ≤ 0.026 |
| U8C C11A C56U | ≤ 0.026 |
| G7U C12U G85U | ≤ 0.026 |
| U8A C79A | ≤ 0.026 |
| G7U C34G C56G | ≤ 0.026 |
| U8A C34A G61U | ≤ 0.026 |
| U8A A30G U35G G69A | ≤ 0.026 |
| G7C G15C | ≤ 0.026 |
| U8A A23U U58G | ≤ 0.026 |
| G7U C11G | ≤ 0.026 |
| U8A U20C | ≤ 0.026 |
| U8C G10U A13G G59A G67U A89G | ≤ 0.026 |
| U8C A23U U58G G85C | ≤ 0.026 |
| G7U C27G A33U G73C | ≤ 0.026 |
| G7U U8C A23U C82G A87G | ≤ 0.026 |
| U8A A13G | ≤ 0.026 |
| U8A A23G C27G U63C | ≤ 0.026 |
| G7U U71A | ≤ 0.026 |
| G7U U71G | ≤ 0.026 |
